Among the data in PMC12136788 are binding signal values, retold here.

T1: UNK ZnF1-6 (called full-length) (human, UniProt Q9C0B0 30-357)
T1 sequence: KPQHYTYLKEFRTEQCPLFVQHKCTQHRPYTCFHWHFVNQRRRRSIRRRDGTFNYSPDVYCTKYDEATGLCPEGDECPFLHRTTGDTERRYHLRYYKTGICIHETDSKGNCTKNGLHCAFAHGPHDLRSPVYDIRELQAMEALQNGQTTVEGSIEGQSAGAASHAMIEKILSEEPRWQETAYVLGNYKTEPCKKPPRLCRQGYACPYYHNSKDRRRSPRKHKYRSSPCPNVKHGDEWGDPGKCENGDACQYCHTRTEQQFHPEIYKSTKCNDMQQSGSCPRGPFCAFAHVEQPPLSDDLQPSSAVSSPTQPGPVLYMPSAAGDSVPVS

B1: chr1:203340627:203342342:-|three_prime_utr|ENSG00000122176|control|control|control (ssRNA)
RNA: GGGAGUUCUACAGUCCGACGAUCUGGCUUUUGCUGGAAGGUCCAGGAUGGACCAUGUGACAGAAGUCCACGGGCACCCUCUGUAGUCUUCUUUCCUGUAGGUGGGGUUAGGGGGGGCGAUCAGGGACAGGCAGCCUUCUGCUGCAACAGAGGAUUGAGCAUCA
B2: chr14:81473690:81473791:-|3pUTR|ENSG00000071537|msi1|FALSE|unique (ssRNA)
RNA: GGGAGUUCUACAGUCCGACGAUCCAGUGUUUUGGAAGUAUGCAUGCAGGCCUAUAAAUGAAAAACACAAUUCUUUAUGUGUAUAGCAUGUGUAUUAAUGUCUAACUACAUACGCAAAAACUUCCUUUACAGAGGUUCGGACUACAACAGAGGAUUGAGCAUCA
B3: chr16:70572763:70572864:+|3pUTR|ENSG00000189091|msi1|FALSE|bound_elsewhere (ssRNA)
RNA: GGGAGUUCUACAGUCCGACGAUCUCUGCAGCACCCAUCUCAGGUGGGUUCCAGAGGGCCUUUAGGGUAUAAUGAGAGCCUGUUAGGUGGAAGAGGCCCAGUUCCAGAAAUGUUCCAGCCCACCCCUGAGAAUUCCUCCUGUUUCAACAGAGGAUUGAGCAUCA
B4: ENSG00000124766:be:win_3401|3pUTR|ENSG00000124766|bound_else_gene|NA|bound_elsewhere_windowed (ssRNA)
RNA: GGGAGUUCUACAGUCCGACGAUCCUGUAAGCUUUUAAGAAAAACAAAGUUUUAAACGAAAUACUGCUCUGUCCAGAGGCUUUAAAACUGGUGCAAUUACAGCAAAAAGGGAUUCUGUAGCUUUAACUUGUAAACCACAUCUUUCAACAGAGGAUUGAGCAUCA
B5: chr15:97973610:97973711:+|3pUTR|ENSG00000140450|unk|FALSE|unique (ssRNA)
RNA: GGGAGUUCUACAGUCCGACGAUCGGUGCACAAAAUCCUUCUGUGGGCAAAACUUUGUUUUUGUUUUGCACAGUAAGAAACAAUAGGCAAGCGUUAUGUUUUUGGUAAGUUAACUAUGAAAGCUUUCUUAUUUUUAUUAUUAAACAACAGAGGAUUGAGCAUCA
B6: chr2:121339258:121339359:-|3pUTR|ENSG00000074054|unk|FALSE|unique (ssRNA)
RNA: GGGAGUUCUACAGUCCGACGAUCUUUUGAGAUUAAUUCUAAUAACGUAUUUGCUAUUGCAGUGCAGAGCCCACUGCAACUGCUAGGACUGAAAGCAGAGGCUGGGUGCCAGAGCACGUGAUUCUUAACAUCAUUUCCACAGACCAACAGAGGAUUGAGCAUCA

This is one part of the list.

This assay has as its target T1, UNK ZnF1-6 (called full-length). The experiment in a line: nsRBNS (natural sequence RNA bind-n-seq); RBNS binding buffer (assumed for nsRBNS): 25 mM Tris pH 7.5, 150 mM KCl, 3 mM MgCl2, 0.01% Triton X-100, 500 ug/ml BSA, 20 U/ml SUPERase-In, 4 C; UNK is unkempt and MSI1 is Musashi-1; names of the RNAs are library labels; protein concentration not given here; high values mean tight binding.
Molecule B1 returned a binding signal of 1.2 enrichment R.

B2 came in with a binding signal of 0.61 enrichment R.

B3 showed a binding signal of 0.61 enrichment R.

Turning to B4, the binding signal was determined as 0.485 enrichment R.

Consider B5, for which the binding signal came out at 1.28 enrichment R.

B6 showed a binding signal of 0.814 enrichment R.
